Source: article PMC4336329 (PLoS ONE, 2015)
Hit rate of the full screen: of about 310,000 compounds, about 2,200 (0.71%) showed an effect of 50% or more. The effect is printed as a negative number. The list shows a part of the results.

molecular target: human ether-à-go-go-related gene (hERG) potassium channel (human, UniProt Q12809); assay: primary screen, population patch clamp on CHO cells stably expressing hERG
Sequence (Q12809 whole entry, looked up): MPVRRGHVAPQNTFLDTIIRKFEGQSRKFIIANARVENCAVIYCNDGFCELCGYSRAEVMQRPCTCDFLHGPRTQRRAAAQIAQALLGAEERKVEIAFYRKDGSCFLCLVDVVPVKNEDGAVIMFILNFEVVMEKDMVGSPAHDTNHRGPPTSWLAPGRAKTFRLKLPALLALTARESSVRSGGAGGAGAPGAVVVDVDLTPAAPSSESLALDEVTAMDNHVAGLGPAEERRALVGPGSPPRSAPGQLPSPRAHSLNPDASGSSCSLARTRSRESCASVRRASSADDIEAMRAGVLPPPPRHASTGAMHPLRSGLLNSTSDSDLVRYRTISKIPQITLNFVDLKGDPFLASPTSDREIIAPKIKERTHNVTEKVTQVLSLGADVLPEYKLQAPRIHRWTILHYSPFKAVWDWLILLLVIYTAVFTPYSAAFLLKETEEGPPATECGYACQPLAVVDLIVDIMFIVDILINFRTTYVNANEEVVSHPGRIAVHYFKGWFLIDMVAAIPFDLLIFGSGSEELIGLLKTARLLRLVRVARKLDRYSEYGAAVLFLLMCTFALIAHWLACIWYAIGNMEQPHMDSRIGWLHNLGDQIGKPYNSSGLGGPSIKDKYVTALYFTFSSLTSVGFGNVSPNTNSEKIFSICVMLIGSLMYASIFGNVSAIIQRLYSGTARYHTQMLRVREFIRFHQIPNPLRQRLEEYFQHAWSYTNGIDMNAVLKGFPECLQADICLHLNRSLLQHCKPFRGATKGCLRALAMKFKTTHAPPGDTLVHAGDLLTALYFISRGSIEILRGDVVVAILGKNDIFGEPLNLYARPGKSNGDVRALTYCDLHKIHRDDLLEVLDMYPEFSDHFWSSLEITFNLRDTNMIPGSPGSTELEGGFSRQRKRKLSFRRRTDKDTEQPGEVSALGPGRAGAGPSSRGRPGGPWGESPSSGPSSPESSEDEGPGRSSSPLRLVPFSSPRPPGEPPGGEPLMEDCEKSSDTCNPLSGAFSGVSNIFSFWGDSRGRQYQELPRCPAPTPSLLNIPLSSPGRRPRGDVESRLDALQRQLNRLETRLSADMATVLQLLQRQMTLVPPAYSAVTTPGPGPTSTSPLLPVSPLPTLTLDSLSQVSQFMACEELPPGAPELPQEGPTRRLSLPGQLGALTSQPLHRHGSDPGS

Row | SMILES | hERG current change (%, negative = inhibition) at 1uM [%]
1 | NCc1oc(-c2ccccc2)cc1C(=O)O | 14.2
2 | COc1ccc(C2=CC(c3c(C)nn(-c4ccccc4)c3Cl)n3nnnc3N2)cc1OC (stereo not drawn) | 14.6
3 | Cc1cc(C)cc(N2C(=O)CCN(Cc3ccccc3)C2=O)c1 | 15.2
4 | COc1ccc2cc(-c3nc4ccccc4n3C)c(=O)oc2c1 | 9.35
5 | Cc1ccc(NC(=O)CN(C)Cc2cc(=O)n3ccsc3n2)cc1 | 8.42
6 | CN(CC(=O)Nc1ccc(F)cc1)C(=O)c1cc2c(s1)CCCCC2 | 11.1
7 | Cc1cccc(C)c1NC(=O)CCCCCC1NC(=O)NC1C (stereo not drawn) | 7.25
8 | CC[C@]12C=CCN3CCC4(c5cc(Br)c(OC)cc5N(C)C4[C@@](O)(C(=O)OC)[C@@H]1OC(C)=O)C32 (stereo partly drawn) | 6.43
9 | CCOc1cc(CNc2ccc3cn[nH]c3c2)ccc1OC | 10.8
10 | COc1ccc(S(=O)(=O)N/N=C(/C)c2cccc(NC(=O)c3ccccc3Cl)c2)cc1 | 9.77
11 | COc1cc(NC(=O)COC(=O)CNC(=O)C2CCCCC2)cc(OC)c1 | 10.1
12 | OC1(c2ccccc2)c2ccccc2-c2ncccc21 (stereo not drawn) | 5.63
13 | NS(=O)(=O)c1ccc(NCCCn2ccnc2)c([N+](=O)[O-])c1 | 12
14 | O=C(CSc1nccc(-c2ccc(Br)cc2)n1)NCCc1ccccc1 | 14.5
15 | Brc1ccc2oc(-c3ccn[nH]3)cc2c1 | 13
16 | COc1ccc(-c2cc(C#N)nc(Oc3ccc(Cl)cc3)n2)cc1 | 13.4
17 | Cn1c(=O)oc2cc(S(=O)(=O)Nc3cccc([N+](=O)[O-])c3)ccc21 | 14.9
18 | CCOC(=O)c1c(C)[nH]c(C(=O)OCC(=O)NC2CCS(=O)(=O)C2)c1C (stereo not drawn) | 5.65
19 | COc1ccc(-n2c(C)nc3cc(C(=O)NCc4ccco4)ccc32)cc1 | 6.81
20 | NC(=O)c1ccc(NC(=O)c2cnc3ccccc3n2)cc1 | 11.9
21 | COc1ccc2cc(CN(CCc3ccccc3)Cc3nnnn3Cc3ccco3)c(=O)[nH]c2c1 | 8.04
22 | O=C(O)c1ccccc1SCc1cn2cc(Br)ccc2n1 | 13.9
23 | O=C(NCCN=C1NS(=O)(=O)c2ccccc21)c1ccc(S(=O)(=O)N2CCOCC2)cc1 | 2.08
24 | CCOC(=O)N1CCN(CCC(=O)Nc2ccc(F)c(F)c2)CC1 | 14.6
